Measurements taken from the antibiotic and cytotoxicity screens of Wong et al. (2023).
The other results are listed elsewhere or left out.

tested on: HepG2; assay: cytotoxicity call (relative viability < 0.9); conditions: 10 µM

SMILES	cytotoxicity call
C[C@@H]1CCCCO[C@H](CN(C)C(=O)NC2CCCCC2)[C@H](C)CN([C@H](C)CO)C(=O)c2cc(NC(=O)c3ccncc3)ccc2O1	inactive
CC(=O)N1[C@@H]2c3cccc(=O)n3C[C@@H]2[C@@H](CO)[C@@H]1C(=O)N1CCc2ccccc2C1	inactive
Cc1cc(C(=O)Nc2cccc3c2O[C@@H](CN(C)Cc2ccccc2)[C@H](C)CN([C@H](C)CO)C3=O)n(C)n1	inactive
Cc1ccc(S(=O)(=O)N(C)C[C@H]2Oc3ccc(NC(=O)C4CC4)cc3C(=O)N([C@H](C)CO)C[C@H]2C)cc1	inactive
C[C@H]1CN([C@@H](C)CO)C(=O)c2cc(NC(=O)Nc3cccc4ccccc34)ccc2O[C@H]1CN(C)C(=O)Nc1ccccc1	active
C[C@H]1CN([C@@H](C)CO)S(=O)(=O)c2ccc(C#CC3(O)CCCC3)cc2O[C@H]1CN(C)C(=O)c1cccnc1	inactive
CO[C@@H]1[C@@H](O[C@@H]2O[C@H](C)[C@@H](O[C@H]3C[C@@](C)(O)[C@@H](OC(=O)CC(C)C)[C@H](C)O3)[C@H](N(C)C)[C@H]2O)[C@@H](CC=O)C[C@@H](C)[C@@H](O)/C=C/C=C/CC(C)OC(=O)C[C@H]1OC(C)=O (stereo not given in full)	active
COc1ccc(C#Cc2ccc3c(c2)O[C@H](CN(C)C(=O)CN2CCOCC2)[C@H](C)CN([C@H](C)CO)S3(=O)=O)cc1	inactive
C[C@H]1CN([C@@H](C)CO)C(=O)c2cc(NS(=O)(=O)c3cn(C)cn3)ccc2O[C@@H]1CN(C)Cc1ccccc1	inactive
CC(C)NC(=O)N(C)C[C@H]1Oc2c(NS(=O)(=O)c3ccc(Cl)cc3)cccc2C(=O)N([C@H](C)CO)C[C@@H]1C	inactive
O=C(C[C@H]1CC[C@@H]2[C@H](COC[C@H](O)CN2C(=O)c2cnccn2)O1)NCc1ccc(Oc2ccccc2)cc1	inactive
COc1cccc(S(=O)(=O)N(C)C[C@H]2Oc3ncc(Br)cc3C(=O)N([C@H](C)CO)C[C@H]2C)c1	inactive
Cc1noc(C)c1NC(=O)N(C)C[C@H]1OCCCC[C@@H](C)Oc2ccc(NS(=O)(=O)c3ccc(F)cc3)cc2C(=O)N([C@@H](C)CO)C[C@@H]1C	inactive
C[C@H](CO)N1C[C@H](C)[C@@H](CN(C)CC2CC2)Oc2ccc(NS(=O)(=O)c3cn(C)cn3)cc2CC1=O	inactive
O=C(C[C@@H]1CC[C@H]2[C@@H](COC[C@@H](O)CN2C(=O)Nc2ccc(F)cc2)O1)NCCCN1CCOCC1	inactive
C[C@H](CO)N1C[C@H](C)[C@@H](CN(C)S(C)(=O)=O)OCCCC[C@H](C)Oc2ccc(NS(=O)(=O)c3ccc(F)cc3)cc2C1=O	inactive
Cc1ccc(S(=O)(=O)N(C)C[C@@H]2OCCCC[C@@H](C)Oc3ccc(NC(=O)C4CCCCC4)cc3C(=O)N([C@H](C)CO)C[C@H]2C)cc1	inactive
COc1ccc2c3c(n(c2c1)C)[C@H](CO)N(Cc1cc(cc(c1)OC)OC)C[C@]13CCN(CC1)C(=O)Nc1cccc(c1)F	inactive
COc1ccc(S(=O)(=O)Nc2ccc3c(c2)CC(=O)N([C@@H](C)CO)C[C@H](C)[C@H](CN(C)Cc2ccc(-c4ccccc4)cc2)O3)cc1	active
CCCN(C)C[C@H]1OCCCC[C@@H](C)Oc2ccc(NS(=O)(=O)c3ccc(Cl)cc3)cc2C(=O)N([C@@H](C)CO)C[C@H]1C	active

SMILES	cytotoxicity call
COc1ccc(NC(=O)N(C)C[C@@H]2Oc3ccc(NS(=O)(=O)c4cn(C)cn4)cc3C(=O)N([C@@H](C)CO)C[C@@H]2C)cc1	inactive
COCC(=O)N[C@@H]1C[C@H](CO)[C@H](O)C1	inactive
CC(C)CC#Cc1cnc2c(c1)C(=O)N([C@H](C)CO)C[C@@H](C)[C@H](CN(C)S(=O)(=O)c1cccs1)O2	inactive
COc1ccc2c3c([nH]c2c1)[C@@H](CO)N(C[C@]13CN(Cc2cc(on2)-c2ccccc2)C1)C(=O)Nc1ccc(cc1)F	inactive
CC(C)C[C@H]1CC(=O)N=C(N)N1	inactive
COCCNC(=O)NC(=O)COC(=O)c1cccn1C	inactive
O=C(CCO[C@@H]1O[C@H](CO)[C@@H](O)[C@H](O)[C@H]1O)c1ccc(O)cc1	inactive
Cc1ccc(S(=O)(=O)Nc2ccc3c(c2)C(=O)N([C@@H](C)CO)C[C@@H](C)[C@@H](CN(C)C(=O)CCC(F)(F)F)OCCCC[C@H](C)O3)cc1	inactive
C[C@H]1CN([C@@H](C)CO)C(=O)Cc2cc(NC(=O)CCCCCC(=O)Nc3ccccc3N)ccc2O[C@H]1CN(C)S(=O)(=O)c1cn(C)cn1	inactive
COc1ccc2c3c([nH]c2c1)[C@H](CO)N(C[C@]13CCN(CC1)S(=O)(=O)c1cn(cn1)C)C(=O)Nc1ccc(cc1)F	inactive
C[C@H]1CN([C@@H](C)CO)C(=O)c2cccc(NC(=O)c3nc4ccccc4s3)c2O[C@@H]1CN(C)Cc1ccc(C(F)(F)F)cc1	inactive
Cc1noc(C)c1NC(=O)Nc1ccc2c(c1)C(=O)N([C@@H](C)CO)C[C@@H](C)[C@@H](CN(C)S(=O)(=O)c1ccc(Cl)cc1)OCCCC[C@@H](C)O2	inactive
C[C@H]1CN([C@@H](C)CO)C(=O)Cc2cc(NC(=O)c3ccncc3)ccc2O[C@H]1CN(C)S(=O)(=O)c1ccc(Cl)cc1	inactive
C[C@@H]1CN([C@H](C)CO)C(=O)c2cc(NC(=O)Nc3ccc(F)cc3)ccc2O[C@H]1CN(C)Cc1ccc(Cl)c(Cl)c1	inactive
C[C@@H]1CN([C@@H](C)CO)C(=O)c2cc(NC(=O)Cc3cn(C)c4ccccc34)ccc2O[C@H]1CN(C)S(C)(=O)=O	inactive
CC(C)CC#Cc1ccc2c(c1)O[C@@H](CN(C)CC1CCOCC1)[C@H](C)CN([C@@H](C)CO)S2(=O)=O	active
C[C@@H]1CCCCO[C@@H](CN(C)C(=O)NC2CCCCC2)[C@@H](C)CN([C@H](C)CO)C(=O)c2cc(NC(=O)Nc3ccc(C(F)(F)F)cc3)ccc2O1	active
O=C(C[C@@H]1CC[C@@H]2[C@H](COC[C@@H](O)CN2S(=O)(=O)c2ccccc2F)O1)N1CCC(Cc2ccccc2)CC1	inactive
Cc1ccc(S(=O)(=O)Nc2ccc3c(c2)C(=O)N([C@@H](C)CO)C[C@@H](C)[C@@H](CN(C)Cc2ccncc2)OCCCC[C@@H](C)O3)cc1	inactive
O=C(O)/C=C/C(=O)O	inactive
